Measured values published in PubChem BioAssay AID624417 (National Center for Advancing Translational Sciences (NCATS), 2012).
Where “and” joins values, the source holds several entries; their conditions need not be identical. Equal entries are not always repeated. Among all 410,000 compounds or so, about 6,400 (1.6%) were called active. This list was built around the results that the source calls inconclusive (neither active nor inactive); the mix of calls is not that of the screen. The call rests on the fitted dose curve; in most records, active means well fitted inhibition curve with a large enough effect; inconclusive means small, poorly fitted or top-dose-only effect; inactive means no such curve, though single readings can be large or run the other way. Potencies of inconclusive entries are doubtful fits and often do not repeat.

Target: Glucagon-like peptide 1 receptor (Homo sapiens) (UniProt P43220)
Test: qHTS of GLP-1 Receptor Inverse Agonists (Inhibition Mode); further: nearly all actives have a fitted effect of over 55% in size
Settings: HEK293 GLP-1R CRE-luciferase, luminescence, 24 h, GLP-1R form is constitutively active; activity change, negative = inhibition: at 38.3 µM (top of the series) unless noted
Summary of the method: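 Constitutively active GLP-1R drives a cAMP-responsive luciferase in stably transfected HEK293 cells; test compounds are added after overnight (12 h) attachment and left 24 hr, and signal loss in luminescence marks inhibition.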
On the % scale 0 is the no-effect control and ±100 the full control effect; potency means the concentration at half of the fitted maximal effect; tags describe the fitted curve by direction and shape.

UniProt P43220, sequence (P43220 whole entry, looked up): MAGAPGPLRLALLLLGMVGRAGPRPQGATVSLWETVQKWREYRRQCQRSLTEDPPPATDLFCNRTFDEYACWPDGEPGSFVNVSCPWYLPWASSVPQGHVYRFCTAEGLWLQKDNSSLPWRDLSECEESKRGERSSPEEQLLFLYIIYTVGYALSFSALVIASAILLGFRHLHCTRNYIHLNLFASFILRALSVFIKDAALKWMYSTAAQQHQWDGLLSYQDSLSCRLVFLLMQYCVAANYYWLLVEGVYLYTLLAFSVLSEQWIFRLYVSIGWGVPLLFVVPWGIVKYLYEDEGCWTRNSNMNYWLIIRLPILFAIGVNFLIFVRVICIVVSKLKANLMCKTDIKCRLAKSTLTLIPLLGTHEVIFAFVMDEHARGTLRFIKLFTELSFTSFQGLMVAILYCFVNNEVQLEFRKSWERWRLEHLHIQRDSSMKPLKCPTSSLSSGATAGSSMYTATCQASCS

SMILES	Potency	activity change, negative = inhibition
COc1cccc2c(SCC(=O)N/N=C/c3ccc(O)cc3O)cc(C)nc12	inconclusive: 28.2 µM [inhibitor, single point]	
O=C(/C=C/c1ccco1)NC(=S)Nc1ccc(N2CCCC2)cc1	inconclusive: 8.91 µM [inhibitor, partial curve, poor fit]	
CCOC(=O)c1c(C)[nH]c(C(=O)CN2C(=O)NC(CC)(c3ccccc3)C2=O)c1C (configuration not stated)	inconclusive: 22.4 µM [inhibitor, partial curve, poor fit]	
CCn1c(=O)cc(OCC(=O)N2CCN(c3ccc(C)cc3)C(C)C2)c2ccccc21 (configuration not stated)	inconclusive: 10 µM [inhibitor, partial curve, poor fit]	
COc1ccc(/C=C2/SC(=S)N(NS(=O)(=O)c3ccc(C)cc3)C2=O)cc1	inconclusive: 11.2 µM [inhibitor, partial curve, poor fit]	
CCC(=O)Nc1ccc2nc(SCCOc3ccc(C)cc3OC)sc2c1		inactive: -14.7%
COc1cc(C(=O)N2CCN(c3ccc(C)cc3C)CC2)cc(OC)c1OC	inconclusive: 1.12 µM [inhibitor, full curve, poor fit]	
CCN(CC)S(=O)(=O)c1ccc(C(=O)NCCSc2c(-c3ccc(F)cc3)[nH]c3ccccc23)cc1	inconclusive: 11.2 µM [inhibitor, single point]	
O=C(CN1CCN(S(=O)(=O)c2ccc(Br)s2)CC1)NC1CCCCC1	inconclusive: 10 µM [inhibitor, partial curve, poor fit]	
O=C(c1cc(C2CC2)nn1-c1ccccc1)N1CCN(c2ncc(C(F)(F)F)cc2Cl)CC1	inconclusive: 10 µM [inhibitor, partial curve, poor fit]	
COCCNC(=O)c1c[nH]c2ccc(S(=O)(=O)N(C)c3ccc(C)c(C)c3)cc2c1=O	inconclusive: 12.6 µM [inhibitor, single point]	
S=c1[nH]ccn1-c1cccc(Cl)c1Cl		inactive: -21.2%
O=C(/C=C/Nc1ccccc1)c1ccc(Cl)cc1Cl	active: 11.2 µM	
OC(CNCc1ccccc1)(c1ccccc1)c1ccccc1	inconclusive: 8.91 µM [inhibitor, single point]	
CC1CCC(NC(=O)c2ccc(CS(=O)(=O)c3ccc(Cl)cc3)o2)CC1 (configuration not stated)	inconclusive: 14.1 µM [inhibitor, single point]	
CC(=O)c1sc(NC(=O)C2CCN(C(=O)c3ccccc3C)CC2)nc1-c1ccccc1	inconclusive: 31.6 µM [inhibitor, partial curve, poor fit]	
CCC(C)N(C)C1CCN(C(=S)Nc2cccc(SC)c2)CC1 (configuration not stated)	inconclusive: 20 µM [inhibitor, single point]	
COCCNC(=O)CN1C(=O)c2cccnc2Sc2ccccc21		inactive: 7.62%
CCCCn1c(CCCNC(=O)CC)nc2ccccc21		inactive: 8.25%
Cc1cc(C(=O)CSc2nc(N)cc(=O)[nH]2)ccc1F	inconclusive: 25.1 µM [inhibitor, partial curve, poor fit]	
COc1cccc(NS(=O)(=O)c2ccc(S(=O)(=O)N3CCCC3)cc2)c1	inconclusive: 11.2 µM [inhibitor, single point]	

SMILES	Potency	activity change, negative = inhibition
O=C(c1ccc2c(c1)OCO2)c1cn(Cc2ccc(Cl)cc2)c2ccc(F)cc2c1=O	inconclusive: 17.8 µM [inhibitor, single point]	
OC(COc1ccccc1)CN(Cc1ccccc1)CC(O)COc1ccccc1 (configuration not stated)	inconclusive: 20 µM [inhibitor, single point]	
Cc1ccccc1OCC(=O)N1CCC2(CC1)CC(=O)c1ccccc1O2	inconclusive: 28.2 µM [inhibitor, single point]	
Cc1ccc(NC(=O)CNC(=O)c2ccc(Oc3ccccc3)cc2)nc1	inconclusive: 28.2 µM [inhibitor, single point]	
COc1ccc(C)cc1N(C(=O)c1ccc(F)cc1)c1nc2ccccc2s1	inconclusive: 12.6 µM [inhibitor, partial curve, poor fit]	
CCOC(=O)C1CCN(C(=O)C2CCCN(S(=O)(=O)c3ccc(OCC)c(Cl)c3)C2)CC1 (configuration not stated)	inconclusive: 10 µM [inhibitor, partial curve, poor fit]	
CC(C)(C)c1n[nH]c(=S)n(/N=C/c2cccs2)c1=O		inactive: 15.6%
CCCC(=O)Nc1ccc2oc(-c3ccc(OC)c(Br)c3)nc2c1		inactive: 0%
O=[N+]([O-])c1ccccc1OCc1nc(-c2cccs2)no1		inactive: -25.3%
O=C(COc1ncnc2ccccc12)Nc1cc([N+](=O)[O-])ccc1F		inactive: 7.41%
CC(C)(C)OC(=O)N1CCC(c2c(C(=O)N3CCN(c4ccccn4)CC3)cnn2-c2ccc(F)cc2)CC1		inactive: 3.68%
CC(C)C[C@@H]1CN(CCCC[C@H]2CNC(=O)C(=O)N2CCC2CCCCC2)C(=O)C(=O)N1CCc1ccc(O)cc1		inactive: 5.34%
Cc1ccc(C(=O)c2sc(Nc3ccccc3)c(S(=O)(=O)c3ccccc3)c2N)c(C)c1	inconclusive: 28.2 µM [inhibitor, single point]	
CC(=O)c1cccc(NC(=S)NC(=O)c2ccccc2)c1		inactive: 0.266%
Cc1nc(-c2ccccc2)sc1C(=O)CSc1ccc(Br)cc1	inconclusive: 10 µM [inhibitor, partial curve, poor fit]	
CC(C)Oc1ccc(/C=N/NC(=O)c2ccc(N(Cc3ccccc3)S(C)(=O)=O)cc2)cc1	inconclusive: 28.2 µM [inhibitor, single point]	
COc1ccccc1CNn1c(-c2cccc(C)c2)nc2ccccc2c1=O	inconclusive: 11.2 µM [inhibitor, partial curve, poor fit]	
CCOC(=O)Cn1c(=N)n(CCOc2ccc(F)cc2)c2ccccc21		inactive: 19.3%
COc1ccc(NC(=O)C23CC4CC(C2)CC(c2ccccc2)(C4)C3)c(OC)c1	inconclusive: 8.91 µM [inhibitor, partial curve, poor fit]	
O=C1C2C3C=CC(CC3)C2C(=O)N1c1cccc(C(F)(F)F)c1 (configuration not stated)		inactive: 0.948%
FC(F)(F)c1cccc(NC(=S)Nc2cccc(NC(=S)Nc3cccc(C(F)(F)F)c3)n2)c1	inconclusive: 4.47 µM [inhibitor, full curve]	

SMILES	Potency	activity change, negative = inhibition
COc1ccc(C(=O)/C=C/C(=O)N(CC(=O)NCCC(C)C)Cc2cccs2)c(O)c1	inconclusive: 28.2 µM [inhibitor, single point]	
Cn1c(=O)c2c(nc(Br)n2Cc2ccc3ccccc3c2)n(C)c1=O	inconclusive: 8.91 µM [inhibitor, partial curve]	
COc1ccccc1NC(=O)Nc1nnc(C(C)c2ccccc2)s1 (configuration not stated)	inconclusive: 7.94 µM [inhibitor, partial curve, poor fit]	
CCN1/C(=C/c2ccc3cc(C)ccc3[n+]2CC)Sc2ccc3sccc3c21	inconclusive: 0.891 µM [inhibitor, full curve, poor fit]	
Cc1nc2c(-c3ccccc3)c(C)nn2c(C)c1CCC(=O)NC(C)CCc1ccco1 (configuration not stated)	inconclusive: 10 µM [inhibitor, partial curve]	
COc1ccc(S(=O)(=O)N2CCCCCC2)cc1C(=O)N(C)Cc1ccc(C)cc1	inconclusive: 12.6 µM [inhibitor, partial curve, poor fit]	
CCC1Oc2ccccc2N(CC(=O)NCCCN2CCCCC2C)C1=O (configuration not stated)	inconclusive: 10 µM [inhibitor, partial curve, poor fit]	
COc1ccc(OC)c(-c2cc(C3CCN(c4ncccc4[N+](=O)[O-])CC3)[nH]n2)c1	inconclusive: 6.31 µM [inhibitor, partial curve, poor fit]	
Cc1ccc(S(=O)(=O)N2Cc3ccccc3CC2C(=O)Nc2cc(C)on2)cc1 (configuration not stated)	inconclusive: 11.2 µM [inhibitor, single point]	
O=C(NCc1ccccc1)c1cc(C2CCCCN2S(=O)(=O)c2cccs2)on1 (configuration not stated)		inactive: -9.6%
COc1ccc(NC(=O)c2nnn(Cc3nc(-c4cc(OC)c(OC)c(OC)c4)oc3C)c2C)cc1Cl		inactive: 0.869%
O=C(Cn1ncc(Cl)c(Cl)c1=O)N1CCc2ccccc21	inconclusive: 5.01 µM [inhibitor, full curve, poor fit]	
COc1ccc(C)cc1S(=O)(=O)N1CCN(C/C=C/c2ccccc2)CC1	inconclusive: 28.2 µM [inhibitor, single point]	
CSc1ncc(Cl)c(C(=O)Nc2cccc(Cl)c2)n1	inconclusive: 12.6 µM [inhibitor, partial curve, poor fit]	
COc1ccc(OC)c(NS(=O)(=O)c2ccc(-n3cccn3)cc2)c1	inconclusive: 4.47 µM [inhibitor, full curve, poor fit] and inconclusive: 5.62 µM [inhibitor, partial curve, poor fit]	
Cc1nc(C(F)(F)F)c(C(=O)N/N=C(\N)c2ccccn2)s1	inconclusive: 28.2 µM [inhibitor, single point]	
COc1ccc(C2(c3ccc(OC)cc3)NC(=O)N(CC(=O)Nc3cc(C)ccc3OC)C2=O)cc1	inconclusive: 10 µM [inhibitor, partial curve, poor fit]	
COc1ccc(OC)c(NC(=O)CNC(=O)c2cccs2)c1	inconclusive: 1.26 µM [inhibitor, partial curve, poor fit]	
Cc1cc(Br)cn2c(CC(C)(C)C)c(-c3cccc(Cl)c3)nc12	inconclusive: 10 µM [inhibitor, partial curve, poor fit]	
CC(C(=O)Nc1nccs1)c1ccc([N+](=O)[O-])cc1 (configuration not stated)	inconclusive: 28.2 µM [inhibitor, single point]	
